Measurements published in a collection of fitness landscapes (doi:10.1126/science.1257360).
The other results are listed elsewhere or left out.

B1: PhoQ; a variant is named by its letters at X, in order, P23837 (parent)
chain: MKKLLRLFFPLSLRVRFLLATAAVVLVLSLAYGMVALIGYSVSFDKTTFRLLRGESNLFYTLAKWENNKLHVELPENIDKQSPTMTLIYDENGQLLWAQRDVPWLMKMIQPDWLKSNGFHEIEADVNDTSLLLSGDHSIQQQLQEVREDDDDAEMTHSVAVNVYPATSRMPKLTIVVVDTIPVELKSSYMVWSWFIYVLSANLLLVIPLLWVAAWWSLRPIEALAKEVRELEEHNRELLNPATTRELTSLVRNLNRLLKSERERYDKYRTTLTDLTHSLKTPLXXLQXXLRSLRSEKMSVSDAEPVMLEQISRISQQIGYYLHRASMRGGTLLSRELHPVAPLLDNLTSALNKVYQRKGVNISLDISPEISFVGEQNDFVEVMGNVLDNACKYCLEFVEISARQTDEHLYIVVEDDGPGIPLSKREVIFDRGQRVDTLRPGQGVGLAVAREITEQYEGKIVAGESMLGGARMEVIFGRQHSAPKDE

Variants of: B1
Assay: enrichment ratio after two sorts for PhoP signalling (ratio (wild type AVST 3.29)); higher = more functional
Settings: with PhoP (E. coli)

Row | Variant | enrichment ratio
1 | QSWQ | 33.6
2 | MYFD | ≤ 0.25
3 | QPSP | ≤ 0.25
4 | FEDH | ≤ 0.25
5 | HRFL | ≤ 0.25
6 | LKQC | ≤ 0.25
7 | IKQS | ≤ 0.25
8 | DWYA | ≤ 0.25
9 | VQEW | ≤ 0.25
10 | DNVG | ≤ 0.25
11 | ILNI | ≤ 0.25
12 | PEQE | ≤ 0.25
13 | ILPI | ≤ 0.25
14 | CPFS | ≤ 0.25
15 | GHPL | ≤ 0.25
16 | RHVN | ≤ 0.25
17 | WPDW | ≤ 0.25
18 | LVDL | ≤ 0.25
19 | EKAW | ≤ 0.25
20 | RSHA | ≤ 0.25
21 | LTSE | ≤ 0.25
22 | KLHE | ≤ 0.25
23 | KADQ | ≤ 0.25
24 | ESGI | ≤ 0.25

Row | Variant | enrichment ratio
25 | WKWV | ≤ 0.25
26 | DQHP | ≤ 0.25
27 | SIYH | ≤ 0.25
28 | KVSN | ≤ 0.25
29 | FSNQ | ≤ 0.25
30 | VPDF | ≤ 0.25
31 | TCIY | ≤ 0.25
32 | VTNH | ≤ 0.25
33 | TKEH | ≤ 0.25
34 | WSRA | ≤ 0.25
35 | ITSS | ≤ 0.25
36 | NENV | ≤ 0.25
37 | TDNS | 3.33
38 | ASMV | 7.76
39 | FWCR | ≤ 0.25
40 | QVFF | ≤ 0.25
41 | SCFQ | 0.903
42 | ITRH | ≤ 0.25
43 | DNPK | ≤ 0.25
44 | WRIS | ≤ 0.25
45 | WHQM | ≤ 0.25
46 | VRMP | ≤ 0.25
47 | LPVY | ≤ 0.25
48 | FTEL | ≤ 0.25

Row | Variant | enrichment ratio
49 | RRCS | ≤ 0.25
50 | FFPF | ≤ 0.25
51 | NRTT | ≤ 0.25
52 | WSFN | ≤ 0.25
53 | KYHG | ≤ 0.25
54 | YRQF | ≤ 0.25
55 | VCQH | ≤ 0.25
56 | HENL | ≤ 0.25
57 | DASA | ≤ 0.25
58 | MKPH | ≤ 0.25
59 | FSWH | ≤ 0.25
60 | RCNY | ≤ 0.25
61 | EHAI | ≤ 0.25
62 | KFNI | ≤ 0.25
63 | YKYD | ≤ 0.25
64 | DWIQ | ≤ 0.25
65 | YLCG | ≤ 0.25
66 | RELA | ≤ 0.25
67 | KMGD | ≤ 0.25
68 | EGIL | ≤ 0.25
69 | YGVK | ≤ 0.25
70 | RKKF | ≤ 0.25
71 | NTRQ | ≤ 0.25
72 | AHAL | ≤ 0.25

Row | Variant | enrichment ratio
73 | GPVN | ≤ 0.25
74 | YGPK | ≤ 0.25
75 | LTHP | ≤ 0.25
76 | LRWL | 0.506
77 | QLCW | ≤ 0.25
78 | QNHI | ≤ 0.25
79 | PTEV | ≤ 0.25
80 | SFSM | 1.44
81 | QIGT | ≤ 0.25
82 | KVTK | ≤ 0.25
83 | KKGY | ≤ 0.25
84 | MAIA | ≤ 0.25
85 | NKAD | ≤ 0.25
86 | PMTF | ≤ 0.25
87 | VEAA | ≤ 0.25
88 | AMHL | ≤ 0.25
89 | QGMS | ≤ 0.25
90 | IAQP | ≤ 0.25
91 | YCYQ | ≤ 0.25
92 | GFAY | ≤ 0.25
93 | YRMW | ≤ 0.25
94 | ERQH | ≤ 0.25
95 | HGVF | ≤ 0.25
96 | FVCE | ≤ 0.25

Row | Variant | enrichment ratio
97 | SKLM | 16.3
98 | SWVG | ≤ 0.25
99 | FLCM | ≤ 0.25
100 | LPRQ | ≤ 0.25
101 | IQPA | ≤ 0.25
102 | QLLH | ≤ 0.25
103 | YCMH | ≤ 0.25
104 | DWDI | ≤ 0.25
105 | ADCH | 9.13
106 | NQWK | ≤ 0.25
107 | LGYA | 0.297
108 | WDFK | ≤ 0.25
109 | TATR | ≤ 0.25
110 | PISA | ≤ 0.25
111 | NLER | ≤ 0.25
112 | VPSN | ≤ 0.25
113 | GQIW | ≤ 0.25
114 | PLED | ≤ 0.25
115 | DGGE | ≤ 0.25
116 | MELR | ≤ 0.25
117 | YPRY | ≤ 0.25
118 | MIWN | ≤ 0.25
119 | YPIA | ≤ 0.25
120 | VEVD | ≤ 0.25

Row | Variant | enrichment ratio
121 | VTDL | ≤ 0.25
122 | IYRH | ≤ 0.25
123 | HEIF | ≤ 0.25
124 | MSQT | ≤ 0.25
125 | QSQF | ≤ 0.25
126 | QPAW | ≤ 0.25
127 | DFVY | ≤ 0.25
128 | ENPH | ≤ 0.25
129 | FHWV | ≤ 0.25
130 | NQFF | ≤ 0.25
131 | SAEM | ≤ 0.25
132 | FCNA | ≤ 0.25
133 | LYYA | ≤ 0.25
134 | TSLV | 14.6
135 | SDAK | ≤ 0.25
136 | HFKY | ≤ 0.25
137 | PEQS | ≤ 0.25
138 | DPSV | ≤ 0.25
139 | HGKI | ≤ 0.25
140 | LGAG | ≤ 0.25
141 | VDVE | ≤ 0.25
142 | LRCS | ≤ 0.25
143 | NQNR | ≤ 0.25
144 | PWKD | ≤ 0.25

Row | Variant | enrichment ratio
145 | NIAL | 1.57
146 | QRFN | ≤ 0.25
147 | ALSC | 4.98
148 | IVRM | ≤ 0.25
149 | NEEC | ≤ 0.25
150 | LARH | ≤ 0.25
151 | KKAV | ≤ 0.25
152 | FWAC | ≤ 0.25
153 | PCWD | ≤ 0.25
154 | QMTF | ≤ 0.25
155 | LTII | ≤ 0.25
156 | NPIH | ≤ 0.25
157 | RVLS | ≤ 0.25
158 | QYCI | ≤ 0.25
159 | MFPR | ≤ 0.25
160 | TFRW | ≤ 0.25
161 | KHKS | ≤ 0.25
162 | NFSW | ≤ 0.25
163 | NDQA | ≤ 0.25
164 | HTDS | ≤ 0.25
165 | ITHR | ≤ 0.25
166 | LTTW | ≤ 0.25
167 | VRIL | ≤ 0.25
168 | HDTK | ≤ 0.25

Row | Variant | enrichment ratio
169 | EVFM | ≤ 0.25
170 | LMIR | ≤ 0.25
171 | RGWC | ≤ 0.25
172 | KMKV | ≤ 0.25
173 | YESY | ≤ 0.25
174 | SPTV | ≤ 0.25
175 | ASVP | ≤ 0.25
176 | REDR | ≤ 0.25
177 | PWPG | ≤ 0.25
178 | VPTR | ≤ 0.25
179 | HIDF | ≤ 0.25
180 | NLTA | ≤ 0.25
181 | IGPA | ≤ 0.25
182 | KQML | ≤ 0.25
183 | KAMT | ≤ 0.25
184 | WMRK | ≤ 0.25
185 | PMED | ≤ 0.25
186 | VCCE | ≤ 0.25
187 | ELNM | ≤ 0.25
188 | RSEV | ≤ 0.25
189 | GNDY | ≤ 0.25
190 | PFTE | ≤ 0.25
191 | QMVS | ≤ 0.25
192 | DDSR | ≤ 0.25

Row | Variant | enrichment ratio
193 | FWVI | ≤ 0.25
194 | KHRP | ≤ 0.25
195 | QQGV | ≤ 0.25
196 | NWGV | ≤ 0.25
197 | DRDR | ≤ 0.25
198 | TDGA | ≤ 0.25
199 | QYCD | ≤ 0.25
200 | DMLH | ≤ 0.25
201 | LSIH | ≤ 0.25
202 | EMCN | ≤ 0.25
203 | ESQL | ≤ 0.25
204 | HPMK | ≤ 0.25
205 | FMEV | ≤ 0.25
206 | HPGG | ≤ 0.25
207 | TILL | 0.421
208 | RMSH | ≤ 0.25
209 | SWCE | ≤ 0.25
210 | GAIM | 15.4
211 | IAAP | ≤ 0.25
212 | TGEN | ≤ 0.25
213 | WFLG | ≤ 0.25
214 | NIWV | ≤ 0.25
215 | PWAD | ≤ 0.25
216 | GPWK | ≤ 0.25

Row | Variant | enrichment ratio
217 | QKEP | ≤ 0.25
218 | SKWH | ≤ 0.25
219 | YEPR | ≤ 0.25
220 | QAGI | 6.61
221 | KGQN | ≤ 0.25
222 | QFVC | ≤ 0.25
223 | LARF | ≤ 0.25
224 | KVLQ | ≤ 0.25
225 | WIWC | ≤ 0.25
226 | GCHL | ≤ 0.25
227 | NVPI | ≤ 0.25
228 | YAHE | ≤ 0.25
229 | SNTE | 0.617
230 | FFER | ≤ 0.25
231 | HLSP | ≤ 0.25
232 | DVLR | ≤ 0.25
233 | QMGS | 1.95
234 | NYYN | ≤ 0.25
235 | IMDQ | ≤ 0.25
236 | DQNY | ≤ 0.25
237 | GDLC | 1.96
238 | FFDS | ≤ 0.25
239 | MRQA | ≤ 0.25
240 | YVAS | 0.869

Row | Variant | enrichment ratio
241 | PDID | ≤ 0.25
242 | YWWN | ≤ 0.25
243 | WDNR | ≤ 0.25
244 | RRGI | ≤ 0.25
245 | RQGH | ≤ 0.25
246 | PQGP | ≤ 0.25
247 | HARM | ≤ 0.25
248 | ETPE | ≤ 0.25
249 | KAYP | ≤ 0.25
250 | QATK | ≤ 0.25
251 | KTKE | ≤ 0.25
252 | KVFD | ≤ 0.25
253 | AYFL | ≤ 0.25
254 | IWRW | ≤ 0.25
255 | RMAD | ≤ 0.25
256 | CIYN | ≤ 0.25
257 | AINI | ≤ 0.25
258 | YTRW | ≤ 0.25
259 | MQHP | ≤ 0.25
260 | FAYF | ≤ 0.25
261 | MRQS | ≤ 0.25
262 | KRYW | ≤ 0.25
263 | NNIH | ≤ 0.25
264 | AHHC | ≤ 0.25

Row | Variant | enrichment ratio
265 | LVLM | ≤ 0.25
266 | WADK | ≤ 0.25
267 | SGSC | 9.79
268 | GRAN | ≤ 0.25
269 | GPIG | ≤ 0.25
270 | HCLT | ≤ 0.25
271 | IDEP | ≤ 0.25
272 | FCHI | ≤ 0.25
273 | TVHA | ≤ 0.25
274 | IALT | 1.07
275 | MVFH | ≤ 0.25
276 | SGPV | ≤ 0.25
277 | QALK | ≤ 0.25
278 | RHFM | ≤ 0.25
279 | LPMR | ≤ 0.25
280 | SDWF | ≤ 0.25
281 | LRGK | ≤ 0.25
282 | SYAW | ≤ 0.25
283 | SMRC | ≤ 0.25
284 | PDLQ | ≤ 0.25
285 | PNEG | ≤ 0.25
286 | RNCV | ≤ 0.25
287 | GTQR | ≤ 0.25
288 | MLFM | ≤ 0.25

Row | Variant | enrichment ratio
289 | AREH | ≤ 0.25
290 | FLAM | 0.363
291 | NFAL | ≤ 0.25
292 | SMRA | ≤ 0.25
293 | EYRM | ≤ 0.25
294 | KPTQ | ≤ 0.25
295 | DTWP | ≤ 0.25
296 | SVWM | ≤ 0.25
297 | ICSN | ≤ 0.25
298 | SKQN | ≤ 0.25
299 | RTYD | ≤ 0.25
300 | LKIL | ≤ 0.25
301 | FFCQ | ≤ 0.25
302 | GGIS | 0.407
303 | PAHS | ≤ 0.25
304 | RDNC | 1.59
305 | YCDT | ≤ 0.25
306 | VWIK | ≤ 0.25
